Measured values taken from paper PMC12136788.
Substitutions are numbered along the chain they refer to. Some of the results follow.

T1: UNK ZnF1-3 (human, UniProt Q9C0B0 31-174)
T1 sequence: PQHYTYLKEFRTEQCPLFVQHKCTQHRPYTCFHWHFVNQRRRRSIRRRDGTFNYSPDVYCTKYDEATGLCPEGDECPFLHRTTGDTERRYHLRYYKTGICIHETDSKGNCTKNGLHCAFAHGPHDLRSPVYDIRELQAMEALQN

B1: chr7:141445308:141445309:+_ENSG00000106028_ENST00000265304|hu_hu|hu_hu_hu_mus_False|8_98 (ssRNA)
RNA: GGGAGUUCUACAGUCCGACGAUCUAUGAUUGUUGUUGCUUGUCGCCUCACAUUGUUUUUAUCCAUGUACUCGCCAUAGUCCACUUUCCCUUCCACAAAUAUACGAGCCCCCUUUUUCACAUACUGAUAUGCCACGUCUCUGAGCAACAGAGGAUUGAGCAUCA
B2: chr1:84754351:84754352:-_ENSMUSG00000026219_ENSMUST00000027421|mus_hu|motif|central (ssRNA)
RNA: GGGAGUUCUACAGUCCGACGAUCAGCAUGAUUUUUCAGAACAUCCUUCAGAAGUUCAGCAUCCGCAAAAUAAAUUAUCCGGAGAAUUGCUCUAAGGCACUUAUGUCUGACCGCAGGUCCUGCUGAGGAACUAUACACUUCAUACAACAGAGGAUUGAGCAUCA
B3: chr3:176767854:176767855:-_ENSG00000177565_ENST00000430069|hu_hu|hu_hu_hu_mus_False|18_98 (ssRNA)
RNA: GGGAGUUCUACAGUCCGACGAUCGACAUCCUUGUUACUUGGAACAUCCUGCCCUCCUUCCCGUAUGCAGUGUCUAAGCACGAGCUGCGUAGGGCCACUCGUGCUGUUCUCACUGAGAUUCCAUAUUCUUGCCGUGGAGUCUCCCAACAGAGGAUUGAGCAUCA
B4: chr17:30526466:30526467:+_ENSG00000126858_ENST00000394692|hu_hu|motif|central (ssRNA)
RNA: GGGAGUUCUACAGUCCGACGAUCGUAAGGGAAAACUUUAAAUAAAUCUUUAAGCUCAUCAGGUGACAAAGCACAGUCUCGGUCCAAAUCAUGCUUGUCAAAGGUGCUUUGGAGAAAUAAAUAUGCAUGAUGAUUUAAUUCAGUCAACAGAGGAUUGAGCAUCA
B5: chr1:94914393:94914394:-_ENSMUSG00000014602_ENSMUST00000171796|mus_mus|FALSE|FALSE (ssRNA)
RNA: GGGAGUUCUACAGUCCGACGAUCCCUUUAUUGCUCCAUUUUGGGAACUGUUCCCUCAGAAGGGUGACUUCUGAAUUGUCUAAGUCUCAGAACUUGCACAACCUCUCACACACGUACCAUGCAAGGUGCAUCUCAGACAAAACUCAACAGAGGAUUGAGCAUCA
B6: chr15:98780342:98780343:-_ENSMUSG00000072235_ENSMUST00000097014|mus_mus|FALSE|FALSE (ssRNA)
RNA: GGGAGUUCUACAGUCCGACGAUCUUAUUUAAAACCCAUAAGUGAAAUGGGCAGCUUGGGUCUCUGUCAAAUCAAUCAUUCAUAAGUCAGUAACUGUAUGAAAGCACACAUUGCCACAUACAAAUUAACUGAUCAGACCACAACCAACAGAGGAUUGAGCAUCA
B7: chr11:35642274:35642275:-_ENSMUSG00000018848_ENSMUST00000018992|mus_mus|motif|central (ssRNA)
RNA: GGGAGUUCUACAGUCCGACGAUCCUGCUGACUUGGUGUCACGAUCAGGGGAGGGUUCUCCAAGUCUGGAUAUGCAGCCCGGAUGGCACAGCCAAAGACUUCCUGCAGGCGGCUGUUGAUGUUAAUCAUGUUUUUAGUUGGUUUCAACAGAGGAUUGAGCAUCA
B8: chr7:102090678:102090679:+_ENSG00000160991_ENST00000478730|hu_hu|FALSE|FALSE (ssRNA)
RNA: GGGAGUUCUACAGUCCGACGAUCAGCCAGCCUGUCUUCUUGACCCAAAGCCACUCCUUGGAGGAACGCUGACAUGCUGACAUUCUUUUUUCUUUAUUUUCUUUUUUUUUUUUUUAGAGACAGGGUCUCACUCUGUCACCCAGGCAACAGAGGAUUGAGCAUCA
B9: chr14:89307221:89307222:+_ENSG00000165533_ENST00000346301|hu_mus|hu_hu_hu_mus_False|28_58 (ssRNA)
RNA: GGGAGUUCUACAGUCCGACGAUCUCCUGUUUGGUUAGUGCCAGGGAGCUUCAAAGAUGUGCCAGGGCGUGGGACCUGAGCUAUAGCAUUUUCAUCCAGGAUCAUUUCUGCAAUUCCUUCCUGGUCCACAUCAAUUUCAUCUAUCAACAGAGGAUUGAGCAUCA
B10: chr14:79828021:79828022:+_ENSMUSG00000043881_ENSMUST00000061222|mus_mus|FALSE|FALSE (ssRNA)
RNA: GGGAGUUCUACAGUCCGACGAUCAGGAUCAUAGCAGAGCAUGCGCUUACUGUUGACAGCGUAAAGAUAAUUCUGAACCACUAUUAGUUCAAAUGAAUAAAAGGAAUGUGGUACAGGAGCCACCAAUGCCCAUUGGUUCCUCUGCAACAGAGGAUUGAGCAUCA
B11: chr7:81084073:81084074:-_ENSMUSG00000025789_ENSMUST00000026896|mus_hu|motif|central (ssRNA)
RNA: GGGAGUUCUACAGUCCGACGAUCAGGAUUUAAUCCAACAAACAUUUAUUGAGCAACUGCUGUGUGCUAUGCACCACGCCGGGUGCUGUGAUGGAUACAGAUGAAUAAAACACAGUCCCUGCCCUUGGCAAGCUUACAGUCUAACAACAGAGGAUUGAGCAUCA
B12: chr2:210598762:210598763:+_ENSG00000078018_ENST00000392194|hu_mus|FALSE|FALSE (ssRNA)
RNA: GGGAGUUCUACAGUCCGACGAUCGCAAAACAAUCACUAUACAGCAACAAAUACAUUUGCAAAUUGAUUGAAAAACAUGAACUAACUACAACCAGCCAUUGAAGAAAUACCUUUCUAUGGUAACAGGCUCUAGAAUUAUCAGAACAACAGAGGAUUGAGCAUCA
B13: chr19:8913615:8913616:-_ENSMUSG00000071658_ENSMUST00000096259|mus_hu|mus_mus_mus_hu_False|8_68 (ssRNA)
RNA: GGGAGUUCUACAGUCCGACGAUCAGGGUACCAAAACCUUCUGCCUGAAAUGGGUGCCCCACCCAGUCAGGACUUGGAGCUGAAAGUAUCUGAUGCAGAAGCAGUGACUAUACGAAAGGAGGCCCCUGAUGCUCAGAAGGCCAGCAACAGAGGAUUGAGCAUCA
B14: chr5:32761720:32761721:+_ENSMUSG00000014956_ENSMUST00000015100|mus_mus|motif|central (ssRNA)
RNA: GGGAGUUCUACAGUCCGACGAUCAGGCUGUCCACGUUCAGCUCCCCGUCCGCCAUCUUGUCGGCACCAGACUCUCCUCCCGGAAGCGUUAACAGGGCUUCUCGGCGGCGGCGGCGGCUCGGCGUUCUCACCUACGAGUCACGCCAACAGAGGAUUGAGCAUCA
B15: chrX:98838459:98838460:+_ENSMUSG00000034160_ENSMUST00000044475|mus_hu|FALSE|FALSE (ssRNA)
RNA: GGGAGUUCUACAGUCCGACGAUCCCCCAAAUUCGAAUAAGCUUCUGCCAGAAGGGGGUUCUGUUUAAUUGCCAGAGUGCUAAAGUGAGCAGAUCUGUCCAGCCUUCGACACUGGAAGUGUAUAGAUGAAAGUAAUAAAAGCACCAACAGAGGAUUGAGCAUCA
B16: chr4:11888808:11888809:-_ENSMUSG00000049225_ENSMUST00000108301|mus_hu|FALSE|FALSE (ssRNA)
RNA: GGGAGUUCUACAGUCCGACGAUCGUGCUUGUGCCACUGGAGAAUGGGUAGCAGUGCCCGGCCGCUCUCCACUGCAUUUUCAAUCUCUAGCAAAGUCUCAUGGGGUAACAAAGAGACAGCAAUAUAAUAAAAGAGUCUUUCACUCAACAGAGGAUUGAGCAUCA
B17: chr11:77340908:77340909:-_ENSG00000074201_ENST00000525064|hu_hu|hu_hu_hu_mus_True|18_108 (ssRNA)
RNA: GGGAGUUCUACAGUCCGACGAUCGUUUCGGUCCCUGGACACCGCAUGUAAACUAAUGGUGGGGUAUUCCAGUGAGAAUCCUAAUCCCGAACCAUCUAACCAGGACAGGCGGCUCUCAGCGAUGUAAAGCGUGCCGGUGCCGAGCAACAGAGGAUUGAGCAUCA
B18: chr14:22137345:22137346:+_ENSMUSG00000039197_ENSMUST00000045376|mus_mus|motif|central (ssRNA)
RNA: GGGAGUUCUACAGUCCGACGAUCAAAGAGGAUAUCAACAUAAGGCAUGACGUCCAUCAAGGCUUCCUUGAAGAACUGGCGGAUGAACGGUGCAGACAGGUUCAAAGUGAAGACCCUGUUGUUCUCGGCAGCAUAGCGAGCCACCAACAGAGGAUUGAGCAUCA
B19: chr17:56552419:56552420:-_ENSMUSG00000013236_ENSMUST00000086828|mus_mus|mus_mus_mus_hu_False|98_108 (ssRNA)
RNA: GGGAGUUCUACAGUCCGACGAUCAAAGUUUUUUUCUUAAAAAAAAAAUGAAAUGUCACGGGAUACAGUUACACUGAGAGUUUUAAAAGAAAGCUGGAUUCUGGUCCCAGCCCAGUGUCCCCAGGCUGCAGAGCGGGGAGGAGCCAACAGAGGAUUGAGCAUCA
B20: chr7:140404665:140404666:+_ENSG00000090266_ENST00000247866|hu_hu|hu_hu_hu_mus_False|8_18 (ssRNA)
RNA: GGGAGUUCUACAGUCCGACGAUCUGCUCCUACUCGUCCAGAGAGUUUACAGUGUCAGUCCUCGUCAUCAGGAGGGAUUCCCAGUUCUUCAUCUGUCCACUGUGAAGGAUCUGGAUACGGAAAGUGACCCAGCACCUCAUCCGACAACAGAGGAUUGAGCAUCA
B21: chr11:77340908:77340909:-_ENSG00000074201_ENST00000525064|hu_hu|hu_hu_hu_mus_True|48_108 (ssRNA)
RNA: B17 RNA with C87A, A90G, A117C
B22: chr7:141445308:141445309:+_ENSG00000106028_ENST00000265304|hu_hu|hu_hu_hu_mus_False|48_48 (ssRNA)
RNA: B1 RNA with U42C, C95A, G135A

Each binder was assayed against T1, UNK ZnF1-3 (assay: nsRBNS (natural sequence RNA bind-n-seq); RBNS binding buffer (assumed for nsRBNS): 25 mM Tris pH 7.5, 150 mM KCl, 3 mM MgCl2, 0.01% Triton X-100, 500 ug/ml BSA, 20 U/ml SUPERase-In, 4 C; UNK is unkempt and MSI1 is Musashi-1; names of the RNAs are library labels; protein concentration not given here; high values mean tight binding).

Binder | binding signal
B1 | 0.654 enrichment R
B2 | 2.25 enrichment R
B3 | 0.541 enrichment R
B4 | 0.969 enrichment R
B5 | 0.73 enrichment R
B6 | 0.907 enrichment R
B7 | 1.13 enrichment R
B8 | 0.695 enrichment R
B9 | 0.909 enrichment R
B10 | 0.777 enrichment R
B11 | 0.869 enrichment R
B12 | 1.46 enrichment R
B13 | 0.724 enrichment R
B14 | 0.73 enrichment R
B15 | 1.66 enrichment R
B16 | 1.34 enrichment R
B17 | 0.878 enrichment R
B18 | 0.97 enrichment R
B19 | 1.62 enrichment R
B20 | 1.24 enrichment R
B21 | 1.01 enrichment R
B22 | 0.768 enrichment R
